Measured values as given in publication PMC10548512 (Chemical Science, 2023).

Conditions: incubation for a total of 4 hours, 37 °C, PURExpress translation mixture; read-out MALDI-TOF-MS; no further change to product

Substance: H-CILFPTGKRB-OH (sidechain bridge or staple) [P1]
- Stability of macrocyclic peptide in in vitro translation reaction mixture: stable
